Measured values published in publication PMC6919601, “Identification of Plasmodium dipeptidyl aminopeptidase allosteric inhibitors by high throughput screening” (PLoS ONE, 2019).
Screen size: about 110,000 compounds; about 230 (0.21%) showed an effect of 50% or more. Some of the results follow.

Target: DPAP1 (Plasmodium falciparum, UniProt Q8IIJ9)
Assay: primary screen, percent inhibition; read by cleavage of a fluorogenic dipeptide substrate; higher = more effect of the substance
Parameters: species or system P. falciparum D10 trophozoite lysates; single well
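Note: 30 min substrate incubation versus DMSO and 10 µM JCP410 controls.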

Sequence of DPAP1 (Q8IIJ9 whole entry, looked up): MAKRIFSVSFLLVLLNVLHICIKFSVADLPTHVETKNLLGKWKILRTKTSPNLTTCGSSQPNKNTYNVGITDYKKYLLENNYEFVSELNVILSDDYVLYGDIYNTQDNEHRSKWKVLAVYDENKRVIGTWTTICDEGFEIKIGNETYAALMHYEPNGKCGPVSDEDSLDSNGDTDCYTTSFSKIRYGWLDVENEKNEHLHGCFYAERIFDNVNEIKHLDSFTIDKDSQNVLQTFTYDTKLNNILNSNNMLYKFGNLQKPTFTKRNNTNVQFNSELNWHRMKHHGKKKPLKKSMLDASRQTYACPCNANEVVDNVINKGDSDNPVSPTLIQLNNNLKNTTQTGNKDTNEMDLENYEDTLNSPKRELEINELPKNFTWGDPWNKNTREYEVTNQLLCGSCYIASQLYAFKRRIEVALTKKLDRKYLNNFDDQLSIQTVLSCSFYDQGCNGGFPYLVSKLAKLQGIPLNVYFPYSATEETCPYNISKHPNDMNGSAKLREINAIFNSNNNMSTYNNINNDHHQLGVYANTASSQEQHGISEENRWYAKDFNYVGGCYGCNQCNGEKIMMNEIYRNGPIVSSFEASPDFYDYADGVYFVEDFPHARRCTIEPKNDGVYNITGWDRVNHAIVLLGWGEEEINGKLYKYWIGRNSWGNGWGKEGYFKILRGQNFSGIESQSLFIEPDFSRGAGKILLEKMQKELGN

Compound | % Inhibition @ 10 uM [%]
CC(NC(=O)Cc1ccccc1)c1nc2ccccc2n1Cc1ccccc1 (stereo not shown) | 2.73
COCCN1C(=O)c2[nH]nc(-c3ccccc3O)c2C1c1cccc(OCCC(C)C)c1 (stereo not shown) | 8.13
COc1ccccc1-c1cc(=O)n(CC(=O)NC(C)c2cccc3c2OCCO3)c2c1CCCC2 (stereo not shown) | -6.68
COc1ccc(C)cc1C(=O)C1CC(C(=O)O)C(C)(C)C1C (stereo not shown) | 2.1
CCOc1ccccc1/N=C(C)/C=C(\O)c1cccnc1 | 3.19
C=COCCNC(=O)C(=O)NCc1ccccc1 | -1.56
CCOC(=O)c1cc2cc(OC)ccc2oc1=O | 3
CCCCOc1ccc(Nc2nc(C)cc(O)n2)cc1 | -3.27
COc1ccc(NC(=O)C(C(C)C)N2C(=O)c3ccccc3C2=O)cc1 (stereo not shown) | 8.19
CCC(C)NS(=O)(=O)c1ccc(OCC(=O)N2CCc3ccccc3C2)cc1 (stereo not shown) | -4.15
CN1CCN(CCCNC(=O)C2CCCN(c3nnc(-n4cccc4)s3)C2)CC1 (stereo not shown) | 2.76
C=CCn1c(C(C)NC(=O)c2ccc(Cl)cc2)nc2ccccc21 (stereo not shown) | 1.5
CCN(CC)C(=O)c1sc(NC(=O)c2ccccc2F)c(C#N)c1C | -0.941
CC(C)(Nc1ccc(Cl)cc1)c1nnnn1C(/C=C\c1ccc(Cl)cc1Cl)C(C)(C)C (stereo not shown) | -2.72
Cc1c(C(=O)N2CCCCCC2)nnn1-c1nonc1N | -5.51
CCCCc1ccc2ccccc2c1C(=O)O | -0.0372
Cc1ccsc1CN(C(=O)COc1ccc(C(C)(C)C)cc1)C1CCS(=O)(=O)C1 (stereo not shown) | -1.11
Cc1c(C(=O)C(=O)N2CCOCC2)c2ccccc2n1Cc1ccccc1 | -3.07
CCC(C)(C)C1CCc2c(sc(NC(=O)c3cccnc3Cl)c2C(N)=O)C1 (stereo not shown) | -3.83
CCCSc1ncc(Cl)c(C(=O)Nc2sc3c(c2C(=O)NCC2CCCO2)CCC3)n1 (stereo not shown) | 1.25
COc1ccc(-c2ccc3c(N)c(C(=O)Nc4ccc(F)cc4)sc3n2)cc1 | -6.17
O=C(CSc1nnnn1-c1ccccc1)NCCc1ccccc1 | -4.7
COc1cc(C2=N/C(=C/c3c(OC)ccc4ccccc34)C(=O)O2)cc(OC)c1OC | -6.18
O=[N+]([O-])c1ccc(CS(=O)(=O)Nc2cccc(C(F)(F)F)c2)cc1 | -1.59
Cn1c(=O)c2c(nc(CN3CCOCC3)n2CCCO)n(C)c1=O | -1.43

Compound | % Inhibition @ 10 uM [%]
CN(C)CCN(C)Cc1cccs1 | 2.26
CCCCN(C)C(=O)Cn1cccc1C(=O)c1ccccc1 | -2.47
CN(C)c1cccc2c1C(=O)c1ccccc1C2=O | 0.912
O=C1/C(=C\c2ccco2)CC2CC1C/C(=C/c1ccco1)C2=O | 1.84
Cc1nc2nc(N3C(=O)CCC3=O)nn2c(C)c1Cl | -1.31
Cc1ccc2nc(-c3ccc(N)cc3O)oc2c1 | 3
CCOC(=O)N1CCN(S(=O)(=O)N2CCCC(C(=O)NCCCN3CCCC3=O)C2)CC1 (stereo not shown) | 8.2
C=CCc1cc(/C=C2/SC(=O)N(CC)C2=O)cc(OCC)c1O | -1.95
CN(C)S(=O)(=O)c1ccc(-c2cs/c(=N\c3ccccc3)n2Cc2ccccc2)cc1 | -0.425
c1cc(CN2CCN(C3C4CC5CC(C4)CC3C5)CC2)ccn1 (stereo not shown) | -8.58
CCOC(=O)C1CCN(Cc2ccccc2C)CC1 | -3.65
C(=C\c1ccccc1)/CN1CCN(C2C3CC4CC(C3)CC2C4)CC1 (stereo not shown) | -3.35
O=C(Nc1nnc(Cc2ccc(Cl)cc2Cl)s1)c1cccs1 | 2.3
O=C(NCc1ccccc1)/C(=C\c1ccc(-c2ccc(Cl)cc2)o1)NC(=O)c1ccccc1 | 13.9
COc1cccc(CSc2nc3ccncc3n2Cc2ccc(F)cc2)c1 | -5.15
O=C(O)c1ccccc1C(=O)NCC(O)COc1ccc2ccccc2c1 (stereo not shown) | -1.52
CCN1CCCC1CNC(=O)C1=C(C)C(=O)OC12CCCCC2 (stereo not shown) | -5.58
O=C(CSc1nc2ccsc2c(=O)n1Cc1ccc2c(c1)OCO2)NCCCc1ccccc1 | -3.49
COc1ccc(OCC(O)CNC(C)(C)CC(C)(C)C)cc1 (stereo not shown) | -1.29
CCOc1ccc(NC(=O)CN2C(=O)S/C(=C/c3ccc(OC)c(O)c3)C2=O)cc1 | -1.57
c1ccc(C2OCC3Cc4ccccc4C3O2)cc1 (stereo not shown) | 1.63
CC(=O)N1CCC2(CC1)OC(=O)C(C)=C2C(=O)N1CCc2ccccc2C1 | -1.31
O=C(OCCN1CCOCC1)c1ccc(O)cc1O | -1.06
Cc1c(Cl)cccc1NC(=O)c1cnn(-c2ccccc2)c1C | 3.49
CCCCc1ccc(-c2csc(N)n2)cc1 | -9.53

Compound | % Inhibition @ 10 uM [%]
CN(Cc1ccccc1)C(=O)c1cnn(-c2ccccc2)c1-n1cccc1 | -3.35
N#CCCC1(CCC#N)CCCC(CCC#N)(CCC#N)C1=O | 2.79
Fc1cccc(F)c1CN1CCN(c2cccc(Cl)c2)CC1 | 3.48
O=C(C(Cc1ccccc1)n1cccc1)N1CCCCCC1 (stereo not shown) | -4.21
O=C(c1ccc(Cl)c(Cl)c1)N1CCN(c2ccccc2)CC1 | 1.88
CN1CCC(NCC2CCCO2)CC1 (stereo not shown) | 2.98
Sc1nnc(CN2CCSCC2)n1-c1ccccc1Cl | 0.219
CC(C)Cc1ccc(C#N)c(SCC(=O)O)n1 | -3.63
O=C1C(O)=C(c2ccc([N+](=O)[O-])cc2)C(=O)c2ccccc21 | -2.42
COc1ccc(C)cc1NCc1ccncc1 | -1.5
Cc1oc2cc(OCC(=O)O)ccc2c(=O)c1-c1ccc(Br)cc1 | 3.93
CC(C)C[C@H](NS(=O)(=O)c1ccc2c(c1)CN(C(=O)C(F)(F)F)CC2)C(=O)NCC#N | 1.52
COc1ccc(/C=C(\C#N)c2nc3ccccc3s2)c(OC)c1 | 2.45
CCC1CCCCN1C(=O)Cn1c(=O)n(CCCC(=O)NCc2ccco2)c(=O)c2sccc21 (stereo not shown) | -0.591
COc1ccc(OC)c(N2C(=O)CC(N3CCN(Cc4ccccc4)CC3)C2=O)c1 (stereo not shown) | -1.52
COc1ccc(C(=O)C2=C(O)C(=O)N(CCCN3CCOCC3)C2c2ccc(C(C)C)cc2)cc1 (stereo not shown) | -1.25
Cc1nn(Cc2cccc3ccccc23)c(C)c1NC(=O)c1ccc2c(c1)OCO2 | -2.74
CCN(CC)CCNc1nc2c(c(=O)n(C)c(=O)n2C)n1C(C)c1ccccc1 (stereo not shown) | -7.09
Cc1nc2c(C(=O)NC3CCCCC3)cnn2c(C)c1Cc1ccccc1Cl | 7.37
CCC(C)NCc1c(C(=O)O)n(Cc2ccc(F)cc2)c2cc(C)ccc12 (stereo not shown) | 2.6
O=C(O)Cc1ccc(NC(=O)c2cccc3ccccc23)cc1 | -0.0217
Oc1ccnc2cc(N3CCCCCC3)c(F)cc12 | -3.2
CC(Sc1nnc(COc2ccc(Br)cc2)n1Cc1ccccc1)C(=O)O (stereo not shown) | 0.00706
COc1ccc(N(CC(=O)Nc2ccc(C)c(C)c2)S(C)(=O)=O)cc1Cl | -5.27
Oc1ccc(-c2cn3c4ccccc4n(CCN4CCOCC4)c3n2)cc1 | -2.99

Compound | % Inhibition @ 10 uM [%]
CCCCN1C(=O)C2Cc3c([nH]c4ccccc34)C(c3cccc(Cl)c3Cl)N2C1=O (stereo not shown) | 7.92
Cc1ccc(CN2CCc3nc(SCC(=O)NCCc4ccccc4)nc(O)c3C2)cc1 | 9.86
CCn1c(N/C(O)=C/C(O)(C(F)(F)F)C(F)(F)F)nc2ccccc21 | 2.57
CCc1c(C#N)c(=O)[nH]c(=O)n1-c1ccccc1 | -0.68
Cc1ccc(C2c3sc(O)nc3SC3C4CC(C5C(=O)N(C(C(=O)O)C(C)C)C(=O)C45)C23)cc1 (stereo not shown) | -3.52
C=CCN(Cc1nc(-c2ccc(OC)c(OC)c2)no1)C(=O)NCCC | 3.27
CCC(C)N(CCNS(=O)(=O)c1ccc(-c2ccc(O)nn2)s1)Cc1cccs1 (stereo not shown) | 0.0489
CCC(=O)Nc1ccc(S(=O)(=O)NC(C)(C)C)cc1 | 1.27
COc1ccc(/C=C2\Sc3ccccc3C2=O)c(OC)c1 | -2.87
C=C(C(=C)S(=O)(=O)c1ccc(Cl)cc1)S(=O)(=O)c1ccc(Cl)cc1 | -3.09
Nc1ccc2oc(-c3ccc(O)cc3)nc2c1 | -4.18
CCCC1=C(C(=O)OCC)C(c2cccc(Br)c2)C(C#N)=C(N)O1 (stereo not shown) | 1.48
CC1(C)N=C(c2ccc(Br)cc2)C(=O)N1 | 6.28
CC1=CC(=C2C(=O)NC(=O)NC2=O)C=C(C)N1CCO | 3.66
COc1ccc2c(c1)n1nnnc1c1nnnn21 | -2.99
COc1ccc(C(=O)CC2(O)C(=O)N(Cc3cccc4ccccc34)c3ccccc32)c(OC)c1 (stereo not shown) | -0.992
COc1ccc(N2C(=O)c3c(C)nc4ccccc4c3C2=O)cn1 | -4.86
CC(Cc1ccccc1)NC(=O)C1CCCNC1=O (stereo not shown) | -0.28
Cc1ccc(S(=O)(=O)N2CCN(C(=O)CSc3nnc(C)c(O)n3)C2c2ccccc2)cc1 (stereo not shown) | -4.73
Cc1oncc1NC(=O)[C@H](CC(C)C)NC(=O)c1ccc(-c2csc(Nc3ccncc3)n2)cc1 | -1.41
C=C(C)[C@@H]1CC=C(CN2CCN(CCO)CC2)CC1 | -6
COCCNC(=O)CCCn1c(SCC(N)=O)nc2c(sc3ccccc32)c1=O | 8.28
COc1cc(/C=C/c2nc(C#N)c(NCC(C)C)o2)cc(OC)c1OC | -0.808
COC(=O)c1ccccc1-n1c(CCC(=O)O)ccc1-c1ccc(F)cc1 | -5.85
O=C(Nc1ccccc1C(=O)O)c1ccccc1 | -3.65
